Results from PMC13586351.
Results are given in words; binding and its absence hold for the method and conditions named. For some assays here: Binding seen in cells or lysates may run through a third protein. Some entries that bind do so weakly or less than the wild type.

Sequences of proteins named here, by UniProt entry; tags and fusion partners are left off.
UniProt Q17RN3: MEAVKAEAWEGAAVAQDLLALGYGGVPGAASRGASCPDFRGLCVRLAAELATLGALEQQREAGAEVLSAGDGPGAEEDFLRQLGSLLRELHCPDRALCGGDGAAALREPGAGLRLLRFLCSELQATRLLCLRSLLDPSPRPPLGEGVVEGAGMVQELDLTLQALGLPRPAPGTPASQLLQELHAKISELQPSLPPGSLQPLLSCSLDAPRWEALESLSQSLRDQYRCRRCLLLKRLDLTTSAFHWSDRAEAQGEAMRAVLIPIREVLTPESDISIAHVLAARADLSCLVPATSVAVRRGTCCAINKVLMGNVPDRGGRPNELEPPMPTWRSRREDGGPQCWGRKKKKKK
UniProt Q9BVC5: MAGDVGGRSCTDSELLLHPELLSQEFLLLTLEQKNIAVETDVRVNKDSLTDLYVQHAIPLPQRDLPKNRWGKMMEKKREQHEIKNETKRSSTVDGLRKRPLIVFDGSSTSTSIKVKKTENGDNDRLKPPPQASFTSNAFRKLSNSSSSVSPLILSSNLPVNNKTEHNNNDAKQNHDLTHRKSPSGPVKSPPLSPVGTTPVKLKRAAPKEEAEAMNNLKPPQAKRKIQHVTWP

T1: RTCB (full-length, minimal tRNA-LC, insect cells) (human) (UniProt Q9Y3I0)
T1 sequence: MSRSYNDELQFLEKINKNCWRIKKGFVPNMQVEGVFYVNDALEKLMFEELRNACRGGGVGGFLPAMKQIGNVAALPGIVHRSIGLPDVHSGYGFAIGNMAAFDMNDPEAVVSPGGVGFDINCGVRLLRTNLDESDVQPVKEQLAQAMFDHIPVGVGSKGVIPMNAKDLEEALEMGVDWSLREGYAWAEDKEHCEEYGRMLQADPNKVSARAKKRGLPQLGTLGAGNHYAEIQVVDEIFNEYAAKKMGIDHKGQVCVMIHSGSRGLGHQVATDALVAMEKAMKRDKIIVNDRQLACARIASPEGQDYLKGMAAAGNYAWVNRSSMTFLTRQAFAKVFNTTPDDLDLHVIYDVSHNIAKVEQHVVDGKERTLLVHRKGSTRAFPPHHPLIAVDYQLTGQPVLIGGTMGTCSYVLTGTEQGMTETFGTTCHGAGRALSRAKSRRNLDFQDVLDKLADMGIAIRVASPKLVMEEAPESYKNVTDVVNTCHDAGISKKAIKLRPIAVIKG

T2: CGI-99 (full-length, minimal tRNA-LC, insect cells) (human) (UniProt Q9Y224)
T2 sequence: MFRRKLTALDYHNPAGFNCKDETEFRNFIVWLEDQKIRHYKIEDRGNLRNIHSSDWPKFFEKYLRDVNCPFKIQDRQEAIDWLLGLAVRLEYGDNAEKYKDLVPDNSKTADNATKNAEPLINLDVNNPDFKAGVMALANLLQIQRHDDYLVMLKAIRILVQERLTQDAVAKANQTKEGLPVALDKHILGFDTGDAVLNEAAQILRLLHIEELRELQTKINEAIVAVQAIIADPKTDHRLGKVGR


What was measured:
[1] = target: SBP-tagged FAM98C (HEK293T) (human) (UniProt Q17RN3); test: co-IP; streptavidin affinity co-precipitation from HEK293T lysate with SBP-tagged FAM98A/B/C constructs, co-expressed with the other tRNA-LC subunits; immunoblot
[2] = target: SBP-tagged FAM98A (HEK293T) (human) (UniProt Q8NCA5); test: as above
[3] = target: T1, RTCB (full-length, minimal tRNA-LC, insect cells) (human); test: SEC; RTCB complexes with FAM98A/B/C co-expressed in insect cells, affinity purified, then size exclusion chromatography and SDS-PAGE; both purified
[4] = target: T2, CGI-99 (full-length, minimal tRNA-LC, insect cells) (human); test: as above
[5] = target: FAM98A (insect cells, reconstituted RTCB complex) (human) (UniProt Q8NCA5); test: as above
[6] = target: FAM98C (insect cells, reconstituted RTCB complex) (human) (UniProt Q17RN3); test: as above

Molecule	binding [3]	binding [4]	other results
Ashwin wild type (HEK293T) (from UniProt Q9BVC5 1-232)			binding [1]: no binding; binding [2]: no binding
FAM98A (insect cells, reconstituted RTCB complex) (from UniProt Q8NCA5 1-518)	binds	binds	
FAM98C (insect cells, reconstituted RTCB complex) (from UniProt Q17RN3 1-349)	binds	binds	
DDX1 (insect cells, reconstituted FAM98A/C RTCB complexes) (enzyme, UniProt Q92499 1-740) MAAFSEMGVMPEIAQAVEEMDWLLPTDIQAESIPLILGGGDVLMAAETGSGKTGAFSIPVIQIVYETLKDQQEGKKGKTTIKTGASVLNKWQMNPYDRGSAFAIGSDGLCCQSREVKEWHGCRATKGLMKGKHYYEVSCHDQGLCRVGWSTMQASLDLGTDKFGFGFGGTGKKSHNKQFDNYGEEFTMHDTIGCYLDIDKGHVKFSKNGKDLGLAFEIPPHMKNQALFPACVLKNAELKFNFGEEEFKFPPKDGFVALSKAPDGYIVKSQHSGNAQVTQTKFLPNAPKALIVEPSRELAEQTLNNIKQFKKYIDNPKLRELLIIGGVAARDQLSVLENGVDIVVGTPGRLDDLVSTGKLNLSQVRFLVLDEADGLLSQGYSDFINRMHNQIPQVTSDGKRLQVIVCSATLHSFDVKKLSEKIMHFPTWVDLKGEDSVPDTVHHVVVPVNPKTDRLWERLGKSHIRTDDVHAKDNTRPGANSPEMWSEAIKILKGEYAVRAIKEHKMDQAIIFCRTKIDCDNLEQYFIQQGGGPDKKGHQFSCVCLHGDRKPHERKQNLERFKKGDVRFLICTDVAARGIDIHGVPYVINVTLPDEKQNYVHRIGRVGRAERMGLAISLVATEKEKVWYHVCSSRGKGCYNTRLKEDGGCTIWYNEMQLLSEIEEHLNCTISQVEPDIKVPVDEFDGKVTYGQKRAAGGGSYKGHVDILAPTVQELAALEKEAQTSFLHLGYLPNQLFRTF			binding [5]: binds; binding [6]: binds
